Data from PMC4336329 (PLoS ONE, 2015).
Out of some 310,000 compounds screened, about 2,200 (0.71%) showed an effect of 50% or more. Effects have a minus sign here. Some of the results follow.

What follows are molecules tested against human ether-à-go-go-related gene (hERG) potassium channel (human, UniProt Q12809) (assay: primary screen, population patch clamp on CHO cells stably expressing hERG).
human ether-à-go-go-related gene (hERG) potassium channel, sequence (Q12809 whole entry, looked up): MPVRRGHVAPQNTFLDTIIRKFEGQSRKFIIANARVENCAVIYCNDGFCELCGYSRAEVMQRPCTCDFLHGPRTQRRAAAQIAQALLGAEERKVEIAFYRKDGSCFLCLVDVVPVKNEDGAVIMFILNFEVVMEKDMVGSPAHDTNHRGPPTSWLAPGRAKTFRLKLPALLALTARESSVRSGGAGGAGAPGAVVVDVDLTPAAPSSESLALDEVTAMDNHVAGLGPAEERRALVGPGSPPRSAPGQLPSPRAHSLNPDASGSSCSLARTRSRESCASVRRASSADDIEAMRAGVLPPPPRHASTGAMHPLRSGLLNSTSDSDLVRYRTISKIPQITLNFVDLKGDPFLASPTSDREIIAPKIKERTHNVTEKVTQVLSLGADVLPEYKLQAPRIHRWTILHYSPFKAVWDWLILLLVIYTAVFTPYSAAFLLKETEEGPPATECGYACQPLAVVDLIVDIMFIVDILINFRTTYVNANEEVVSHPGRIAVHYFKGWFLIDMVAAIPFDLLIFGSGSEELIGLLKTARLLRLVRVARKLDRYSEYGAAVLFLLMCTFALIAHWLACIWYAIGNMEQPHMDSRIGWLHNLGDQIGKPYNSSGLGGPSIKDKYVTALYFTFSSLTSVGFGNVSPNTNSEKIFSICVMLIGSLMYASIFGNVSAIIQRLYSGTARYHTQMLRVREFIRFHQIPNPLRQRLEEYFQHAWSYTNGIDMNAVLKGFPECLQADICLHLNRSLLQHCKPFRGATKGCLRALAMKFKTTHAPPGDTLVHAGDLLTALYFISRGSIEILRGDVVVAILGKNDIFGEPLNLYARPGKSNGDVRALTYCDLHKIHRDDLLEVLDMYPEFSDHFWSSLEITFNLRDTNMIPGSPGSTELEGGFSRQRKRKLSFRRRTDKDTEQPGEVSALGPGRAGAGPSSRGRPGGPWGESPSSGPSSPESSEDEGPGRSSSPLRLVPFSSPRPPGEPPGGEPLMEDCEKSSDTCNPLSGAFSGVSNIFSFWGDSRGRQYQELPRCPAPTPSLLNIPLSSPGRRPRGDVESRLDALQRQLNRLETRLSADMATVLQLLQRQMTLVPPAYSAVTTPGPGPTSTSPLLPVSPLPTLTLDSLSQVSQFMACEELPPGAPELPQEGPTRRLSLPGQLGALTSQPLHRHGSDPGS

Structure (SMILES) | hERG current change (%, negative = inhibition) at 1uM
COc1cccc(/C=N/NC(=O)CNC(=O)/C=C\c2ccccc2)c1O | 2.22%
O=C(CSc1nnc(-c2cccnc2)n1Cc1ccco1)N1c2ccccc2Sc2ccccc21 | 1.44%
O=C(c1cnccn1)N1CCN(c2ccccc2F)CC1 | 9.98%
Cc1ccccc1-n1nc(C(=O)c2cccs2)cc(-c2nc3ccccc3[nH]2)c1=N | 10.2%
Cn1c(SCC(=O)N2CCOCC2)nnc1-c1cnccn1 | 15.4%
COc1cccc(CN2CCN(C(c3ccccc3)c3ccccc3)CC2)c1O.O=C(O)C(=O)O | 11.6%
CCN(C(=O)C(C)Sc1ccc(S(=O)(=O)N2CCOCC2)cn1)c1ccccc1 (centres unmarked) | 10.9%
O=[N+]([O-])c1ccc(S(=O)(=O)NCC(c2ccco2)N2CCc3ccccc3C2)cc1 (centres unmarked) | 5.76%
O=C(NC1CCN(S(=O)(=O)c2cccc(F)c2)CC1)c1cccc(F)c1 | 18.4%
CCCCC(=O)N/N=C(\C)CC(=O)Nc1cc(Cl)ccc1OC | 7.39%
CCCCNC(=O)CCn1c(=O)c2ccccc2n(Cc2ccccc2C)c1=O | 1.91%
COc1ccc(C(CNCC(=O)Nc2ccccc2F)N(C)C)cc1.O=C(O)C(=O)O (centres unmarked) | -12.8%
O=C(CN(C(=O)CNC(=O)c1ccco1)c1ccc2c(c1)OCO2)NC1CCCCC1 | 1.98%
Cc1cccc(SCc2noc(C(=O)NCC3CCCO3)c2C(=O)O)c1 (centres unmarked) | 14.9%
CC1OC(Nc2cccc3ccccc23)C(O)C(O)C1O (centres unmarked) | 4.15%
O=C1CN(C(=O)CSc2nc3ccccc3c(=O)n2CCCN2CCOCC2)c2ccccc2N1 | -3.05%
O=C(Nc1nnc(-c2ccc3c(c2)CCCC3)o1)C1CCCCC1 | 9.2%
Cl.N[C@@H](CCl)C(=O)O | 7%
COc1ccc(S(=O)(=O)N2CCCC(C(=O)NCCCn3ccnc3)C2)cc1OC (centres unmarked) | 12.5%
COC(=O)c1ccc(CSc2nnc(N)s2)o1 | 13.3%
O=C(NCCSc1c[nH]c2ccccc12)c1ccc2c(c1)OCO2 | 1.98%
COc1ccc(CCNC(=O)C(C)Sc2ccccc2)cc1OC (centres unmarked) | 13.2%

Structure (SMILES) | hERG current change (%, negative = inhibition) at 1uM
O=S(=O)(c1ccc(Br)s1)N1CCN(c2ccccn2)CC1 | 11.1%
Cc1ccc(NS(=O)(=O)c2ccc3c(c2)n(C)c(=O)n3C)cc1C | 13.2%
CN(Cc1ccco1)S(=O)(=O)c1ccc2c(c1)CCN2C(=O)CCC(=O)O | 18.7%
COc1ccc(NC(=O)CSc2nc(C)cc(C)n2)c([N+](=O)[O-])c1 | 14.5%
COc1ccc(N2CCN(Cc3nc(Cc4cccc(F)c4)no3)C(C)C2)cc1 (centres unmarked) | 1.71%
Cc1c(C=O)c2ccccc2n1Cc1cccc(F)c1 | 7.37%
O=C(COC(=O)CCNS(=O)(=O)c1ccccc1)Nc1ccc(OC(F)F)cc1 | -2.95%
CC(C)OC(=O)c1ccc(NC(=O)c2ccco2)cc1 | 6.19%
S=C(Nc1ccc2c(c1)OCCO2)Nc1ccccc1Cl | 14.8%
Cc1cccc(-c2nnc(NC(=O)c3ccco3)s2)c1 | 18.3%
COc1ccc(CCNC(=O)C2CCN(Cc3nc(-c4ccccc4C)oc3C)CC2)cc1OC | -59.9%
COc1ccc(C(=O)Nc2c(N)nc(SCC(=O)Nc3ccc(C(C)=O)cc3)[nH]c2=O)cc1 | 10.3%
O=S(=O)(c1ccc(-c2n[nH]c(=S)o2)cc1)N1CCCCC1 | 24%
Cc1ccc(NC(=O)NC(=O)N(C(C)C)S(=O)(=O)c2ccc(C)cc2)cc1 | 10.2%
O=C(N=C1SC2CS(=O)(=O)CC2N1c1ccc(F)c(Cl)c1)C1CCCO1 (centres unmarked) | 11.4%
COc1ccccc1-c1nnc(C2CCN(S(=O)(=O)c3cccc([N+](=O)[O-])c3)CC2)o1 | -21.4%
Nc1cccc2c1nnn2C1OC(CO)C(O)C(O)C1O (centres unmarked) | 16%
COC(CNC(=O)C(=O)NCC1OCCN1C(=O)c1ccc(Cl)cc1)OC (centres unmarked) | 14.2%
COc1cccc(C(=O)C2CCCN(Cc3cn(CC(N)=O)c4ccccc34)C2)c1 (centres unmarked) | -18%
CC(C)(C)OC(=O)NCCCC[C@H](NC(=O)c1nc[nH]c1C(=O)N1CCN(c2ccccc2)CC1)C(=O)OC(C)(C)C | 3.55%
Cc1sc2nc(SCC(=O)NCc3ccco3)n(Cc3ccccc3)c(=O)c2c1C | 0.939%
O=C(NCC(=O)N1CCCCCC1)c1ccc(Cl)cc1 | 13%
